From the supplement of paper PMC3334620
The full ranking holds about 33,000 sequences; the median of “E-score (-0.5 to 0.5)” is about -0.054, and the highest 2% start at about 0.39. The list shows a part of the results.

Target: Ylr278c (UniProt Q05854)
Experiment: PBM E-score (8-mer binding enrichment) (E-score (-0.5 to 0.5)); higher = stronger / more preferred TF binding; most listed sequences are background and not binding sites
Details: protein concentration: 200 nM; construct: GST-DNA-binding domain
Method: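 Universal 'all 10-mer' protein binding microarrays (Agilent AMADID 015681) probed with GST-tagged S. cerevisiae TFs (full-length or DBD) made by in vitro transcription/translation (PURExpress), about 100-200 nM. Bound TF was detected with fluorescent anti-GST. Each ungapped 8-mer (which stands for itself and its reverse complement) is scored by the PBM enrichment score (E-score), a modified Wilcoxon-Mann-Whitney statistic from -0.5 to +0.5, computed with the Universal PBM Analysis Suite. Scale: above 0.35 generally sequence-specific binding.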

Sequence | PBM E-score
GCCGCGAC | 0.134
AATCATCG | 0.0946
GGGCGACA | 0.114
TAGAATGA | -0.248
ACCAGTCC | 0.00728
ACTTTTTG | -0.0651
GTACTACA | -0.165
AGCTACTA | -0.0384
GACTTATC | 0.0155
CACTTGAC | -0.161
CGGTCCAC | -0.00962
AAGAGCCG | 0.297
GGGCACGA | -0.12
GCCCCGGC | 0.259
AGAGACGC | 0.153
CGGTTGAA | 0.0521
GCTATGCA | -0.228
ATCGGAGG | 0.426
ACATGCGG | 0.201
AGTGGAGG | -0.0468
GTACAGGA | 0.045
ACGCCGTG | 0.217
ACTGTAAT | -0.172
ATTCTCAC | -0.0477
CTAGAGCA | -0.23

Sequence | PBM E-score
ATCTACTC | 0.0592
AACAGTGT | -0.268
CGCGACAA | 0.106
AGCCACAT | -0.289
CCCATTTA | -0.184
CACAAGCC | -0.154
CGACGATC | 0.0483
ACGTCACT | -0.0519
CTCACTTC | -0.155
GATTTGGC | -0.0757
AGCATAGA | -0.211
ATGCCCGA | 0.0368
TAATATTA | 0.0599
CCTCTCGC | -0.216
ATCGCAAT | -0.00053
CCACATAA | -0.0284
CGGCGCAA | 0.214
CGTCAAGA | -0.209
TAGACCTA | -0.343
CTTCTTTC | -0.136
GCGCGAGA | 0.097
GCTTAAGC | -0.0729
CTCGGATA | 0.215
ATGGGGTC | 0.0764
TGAGGTAA | -0.129

Sequence | PBM E-score
CGTAAACC | -0.0113
CGAGGGCC | 0.0992
AAAGGAGG | -0.188
CAATAATC | 0.113
ATGATCAT | -0.153
GATACACC | 0.162
AGGCCGGA | 0.419
ACGAACGT | -0.16
CATAGACG | -0.0684
GAAGTCTC | -0.0274
CGGAAACA | 0.371
CGTACCAG | -0.0399
AGCCGTCA | 0.0508
TTGGACAA | -0.165
ATGTACAT | -0.0958
AACCATGG | -0.0811
AGCCACGG | -0.0203
ATGGTAAT | -0.0733
AGATCGTA | -0.16
ACGCACGC | 0.264
CGTAGCCA | -0.247
CAGTGCAG | -0.207
CTAGGTGA | -0.262
GCGCTTGA | 0.0827
ACTGAAGG | -0.0961

Sequence | PBM E-score
AAACCTGA | -0.0847
ATATTACA | 0.0258
AATATAAA | 0.218
AGTCTAGC | -0.16
GACATCCC | 0.276
CTTGGTAA | -0.192
CGGTTGGC | 0.119
GGCAGAAC | 0.0664
GAATCGTC | -0.0978
CTCAACAA | -0.0985
ATTCGAGG | -0.131
ATCTTTGG | -0.113
GATCCTAA | -0.339
CCAGAGGG | -0.0435
AGATATGG | -0.0654
AAAGCCAA | -0.123
CCTGTAAA | -0.246
CCCTGAAA | -0.193
GATCGGGC | 0.184
CCACGAGC | 0.183
ACTTTTAA | -0.158
AGTTTCCC | 0.0739
CGCGAAGA | 0.171
ACTGCGGA | 0.312
ACCGCGCT | 0.138

Sequence | PBM E-score
AGGAACGA | -0.155
CCGACTGC | 0.244
ACTCAGCT | -0.0555
ATCTGCAA | -0.325
ACTCTCGC | 0.0203
CAGACTTC | -0.306
GCAGACAA | -0.176
AGCACGCC | -0.0283
AGGAGGTA | -0.0558
AGACCCAC | -0.00095
ATTTTAGA | -0.0601
GGTCCAAA | 0.0394
ATGGGTTA | -0.165
GGCCCGAA | 0.242
AGAGAGAT | -0.115
CCGCTTCA | 0.184
GCCACCGA | -0.073
AGACCGAC | 0.227
AGCACTGA | -0.123
ACGTTATC | -0.00576
AACAGCCT | -0.141
ATCCTGAC | -0.122
CCCAGGGA | -0.218
CGAAATCC | 0.292
TGGAGTAA | -0.105

Sequence | PBM E-score
CGCTAACA | -0.0636
TCTTGCAA | 0.108
ATATTTTA | -0.0845
CGAGTATA | -0.0728
ACATATGC | -0.336
ATCAGTAG | -0.213
ATCCGACC | 0.234
ACTGCGCA | 0.128
AATTACTG | -0.0745
ACCCCATC | -0.0967
ACAGTTGA | -0.168
CATGGACC | -0.125
AGGTAAAG | 0.0761
CCCATAAC | -0.00113
AGTTTATA | 0.131
ATGGCGTC | -0.101
AGCTTCCG | 0.24
CCATGTCG | 0.027
CGAATTAA | 0.02
AAACGTGC | -0.116
ACAAGCCC | -0.197
CCGGACCA | 0.369
ACTTGCGA | -0.0128
AAGTATAT | -0.0709
AGCCGGAG | 0.455

Sequence | PBM E-score
AGGATCGA | -0.0864
ACAGGCAT | -0.229
CCTGAACC | -0.239
GTATACAC | -0.133
GGCAGCCC | 0.0656
CCATGTCA | -0.273
GAAGGCAC | 0.0422
CCTTGGAC | -0.158
CTTAGTGC | -0.0721
GGGGACAC | -0.15
AGCAAGCG | 0.175
GTTGCGCA | -0.0321
GTGTCCGA | 0.374
AAGACCTT | -0.207
ATTCCGTC | 0.362
TGTCCAAA | -0.0727
AGGAGGAT | -0.188
CACCGGGC | 0.304
GGGGGTGA | -0.147
AACCCACT | 0.0973
AAGCCTAC | -0.296
CCCGCTTC | 0.223
